# Assay results taken from the supplement of paper PMC3334620.
# In all, about 33,000 sequences were measured (“E-score (-0.5 to 0.5)”: median about -0.041, highest 2% from about 0.37 on). The list shows a part of the results.
# Biological target: T1, Ecm22 (UniProt Q05958)
# T1 sequence: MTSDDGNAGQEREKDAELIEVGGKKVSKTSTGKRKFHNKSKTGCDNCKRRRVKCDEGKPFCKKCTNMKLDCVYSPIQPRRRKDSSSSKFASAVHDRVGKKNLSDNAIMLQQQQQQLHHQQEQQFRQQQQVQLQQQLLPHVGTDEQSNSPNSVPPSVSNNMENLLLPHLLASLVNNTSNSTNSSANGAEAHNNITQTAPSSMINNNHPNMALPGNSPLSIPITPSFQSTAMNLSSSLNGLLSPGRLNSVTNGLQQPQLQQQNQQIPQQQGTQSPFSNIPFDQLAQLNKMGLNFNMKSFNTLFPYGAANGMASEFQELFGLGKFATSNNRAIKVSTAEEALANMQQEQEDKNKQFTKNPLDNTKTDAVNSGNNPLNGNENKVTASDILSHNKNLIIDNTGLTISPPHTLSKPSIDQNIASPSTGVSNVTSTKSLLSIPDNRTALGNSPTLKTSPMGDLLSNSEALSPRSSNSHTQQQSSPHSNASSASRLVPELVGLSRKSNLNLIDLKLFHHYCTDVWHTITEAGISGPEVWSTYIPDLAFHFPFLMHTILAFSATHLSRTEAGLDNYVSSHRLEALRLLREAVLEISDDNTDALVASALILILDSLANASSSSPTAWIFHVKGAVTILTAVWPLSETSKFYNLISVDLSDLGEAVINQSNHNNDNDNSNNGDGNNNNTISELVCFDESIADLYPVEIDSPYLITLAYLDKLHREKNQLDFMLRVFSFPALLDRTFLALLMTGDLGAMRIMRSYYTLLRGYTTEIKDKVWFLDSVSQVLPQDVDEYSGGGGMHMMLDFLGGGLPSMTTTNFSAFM
# Assay: PBM E-score (8-mer binding enrichment) (E-score (-0.5 to 0.5)); higher = stronger / more preferred TF binding; most listed sequences are background and not binding sites
# Details: protein concentration: 200 nM; construct: GST-full length
# Summary of the method: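 Universal all-10-mer Agilent arrays, fresh or stripped once, were converted to double-stranded form by primer extension. GST-tagged yeast transcription factors from PURExpress in vitro transcription/translation, full-length or DNA-binding domain only, were applied at about 100-200 nM and detected with fluorescent anti-GST. After masliner normalisation, the Universal PBM Analysis Suite scored each ungapped eight-base word together with its reverse complement by E-score.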
row,Sequence,PBM E-score
1,TACTGCCA,-0.0409
2,CCCGAAGC,-0.0995
3,GACCCAGA,0.0321
4,CACTTATG,0.071
5,GCGCCAAC,-0.0839
6,ATTAAAAC,0.086
7,TCTTCTCA,-0.153
8,CGCGGGAG,-0.0511
9,ACCAGAGT,-0.0989
10,ACTACGAT,0.182
11,AGTGCGCA,-0.0824
12,CAGGAGCC,-0.208
13,ATGCGCCG,-0.0823
14,GTGGCACA,-0.195
15,AGGTTGGC,-0.186
16,AGTGTACC,-0.059
17,TAGCCCGA,-0.0144
18,CCGATGAA,0.0749
19,CTTTTTTC,-0.0133
20,GCCGGCGC,-0.064
21,CTGGTTCC,-0.207
22,AACAATAG,-0.0614
23,CTGATCAG,-0.132
24,CGTATCAA,0.386
25,GCACTTGA,-0.184

row,Sequence,PBM E-score
1,ATCACGAC,0.0295
2,AGATTCTC,-0.0302
3,ACACCTTA,-0.139
4,ATGCGCTC,-0.0605
5,TGATTCCA,-0.191
6,AATGCAGG,-0.0879
7,ATTGTCGA,-0.0961
8,ACATAAGA,0.0804
9,CACATGTC,-0.199
10,AACAGCAG,-0.0465
11,AGATGCAA,-0.206
12,AACAGACA,-0.04
13,CAATTCCG,-0.215
14,GACAGACC,0.00609
15,CAGGAGCA,-0.164
16,GCGGCCGA,-0.0115
17,CATCGTCC,0.0413
18,AAGACTGC,-0.243
19,ACACAGCA,-0.0144
20,TAAATAGA,0.0319
21,AGCGACTG,0.177
22,AGGGTTTG,-0.117
23,CACCGCGC,0.0943
24,AAGTTTAG,-0.138
25,ATCACACG,0.0831

row,Sequence,PBM E-score
1,ATTCTGAA,-0.00244
2,CGGTTTGA,-0.0256
3,CGGTTTGC,0.214
4,AAAGATTG,-0.286
5,ACTTAGGG,-0.0832
6,CTGAATCC,-0.173
7,GGGCGGCA,-0.0594
8,CCGAGCGG,0.202
9,AGGAATCG,0.15
10,AGCCTCAG,-0.0416
11,GTCATTTA,-0.185
12,CATGGTGC,-0.152
13,AAGATCCC,-0.0661
14,AGGCGATC,0.0299
15,ACCGCGAT,0.0844
16,ATTGGTGA,-0.215
17,CGTGGTGC,-0.171
18,GGATGAGA,-0.121
19,CCACATGC,-0.105
20,GAGTTCAA,-0.0165
21,ATTACACA,-0.022
22,AAATACGT,0.0932
23,CTCTGCGA,0.15
24,TATGTCGA,0.174
25,CTCGTTAC,0.371

row,Sequence,PBM E-score
1,CCGACCCC,-0.16
2,AAGGCTCC,-0.296
3,AACGAACG,0.437
4,CTTGTCTA,0.0126
5,CTATCACC,-0.124
6,AGACGCTC,-0.179
7,AGATCCCA,-0.166
8,CTTTACAA,-0.207
9,CTTCTTGA,-0.131
10,ACCAGAGA,-0.075
11,GGCGAATA,0.0385
12,GCACTAAA,0.152
13,ACTGGACG,-0.0864
14,CAGCTGGA,-0.0905
15,GTTAACGA,0.408
16,AGATTGTC,0.0657
17,GGAGTCAA,-0.195
18,CTATTTGA,-0.176
19,CCCACCCA,-0.242
20,GAAGATAC,0.0301
21,TAATGTCA,-0.252
22,AACTAGGA,-0.18
23,GCTAGGCC,-0.231
24,AACTATGG,-0.118
25,AGTATTAT,-0.0872

row,Sequence,PBM E-score
1,AGAACTTC,-0.143
2,CAAAAATG,-0.145
3,AAAGGTTG,-0.251
4,CCTGACGC,-0.409
5,AGGACAGG,-0.138
6,ACTAAGTA,-0.165
7,CCGGCCAC,-0.25
8,AAGGGCGC,-0.14
9,AGGTATGC,0.0443
10,CATCTACC,-0.0782
11,AACACGGA,-0.135
12,ATAGTGCG,0.165
13,CGGACTTA,-0.2
14,GACAGGTC,-0.165
15,GCAGGCGA,-0.147
16,TAAATAAA,0.133
17,CAGCGTTA,-0.0109
18,ATAGGCGA,0.0706
19,GGCTGACC,-0.114
20,AACAATCG,0.0979
21,CGGTCTAC,0.134
22,GATAACCA,0.0159
23,CGTTAGTA,0.141
24,CCTTAAGC,-0.144
25,ACTGGGGC,-0.276

row,Sequence,PBM E-score
1,CGACGAGC,0.162
2,TCGGAGAA,-0.0245
3,TCGAGCAA,0.01
4,AGGACATG,-0.0145
5,CCCCTAGC,-0.254
6,GGCACGCA,0.115
7,ACAGTAAC,0.00997
8,ACGCGGGG,0.0811
9,CACTGCTA,-0.0445
10,CGTCCGAG,0.148
11,AACTAGTG,-0.155
12,AGTCGGGG,-0.198
13,CAATCCTA,-0.134
14,AGACCTAG,-0.102
15,CGCCACAC,0.0866
16,ACCTCGTA,0.463
17,ATAAAACA,0.0904
18,CCATAGCA,-0.316
19,AACCCGGC,0.11
20,AGTCGGGA,0.141
21,GACTGCGC,-0.0149
22,TAGGGGCA,-0.203
23,CATACTCA,0.0364
24,GCTCTTCA,-0.119
25,CTTTAAAC,-0.0203

row,Sequence,PBM E-score
1,CGGATGAA,0.16
2,CAGCAGCA,-0.111
3,ATCATATG,-0.00924
4,AAGTCTGG,-0.159
5,AGTCTGCA,-0.179
6,GACTCGCA,0.151
7,GATAACGA,0.194
8,ATCCATCG,0.209
9,ATGTAGAG,-0.101
10,CCCTCTAG,-0.322
11,CAAAATTG,-0.094
12,CACAATGA,-0.0919
13,CCCTCTGC,-0.195
14,CCGATACA,0.164
15,AATGGCGG,-0.175
16,CTCAAACC,-0.188
17,ATGCTGCG,-0.145
18,GTACAGAC,0.207
19,ACTAGTTG,-0.265
20,CGAGGGAG,0.118
21,CCATCTTA,-0.00038
22,CACAGTAG,0.0919
